Laboratory results taken from the BET-seq Pho4 binding data (Le et al. 2018).
Some of the results follow. These are noisy estimates, calculated here from bound and input reads.

These sequences were tested against T1, Pho4 (S. cerevisiae) (UniProt P07270) (assay: relative binding free energy (BET-seq); higher = weaker binding). Details: reference: library average.
T1 sequence: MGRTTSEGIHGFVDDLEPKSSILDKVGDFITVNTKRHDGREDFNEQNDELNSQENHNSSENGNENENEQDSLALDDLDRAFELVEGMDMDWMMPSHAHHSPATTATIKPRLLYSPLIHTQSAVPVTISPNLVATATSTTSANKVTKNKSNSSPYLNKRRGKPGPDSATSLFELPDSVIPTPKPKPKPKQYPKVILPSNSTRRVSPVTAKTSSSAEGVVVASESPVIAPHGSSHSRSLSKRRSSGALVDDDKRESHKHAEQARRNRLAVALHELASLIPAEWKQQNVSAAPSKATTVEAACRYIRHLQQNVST

Sequence	relative binding free energy
ACTGACACGTGTTAGG	0.12 kcal/mol
TTTGTCACGTGATTGC	0.36 kcal/mol
TATAACACGTGTAAGG	0 kcal/mol
TTCATCACGTGTAAGT	0.13 kcal/mol
GTTTTCACGTGCATTA	0.24 kcal/mol
ATTTGCACGTGGAGCA	0.07 kcal/mol
GCGGGCACGTGAAGAG	0.24 kcal/mol
GTGAGCACGTGTGTCA	-0.07 kcal/mol
TGAGGCACGTGGGAAG	-0.04 kcal/mol
TAATGCACGTGCGTAA	0.05 kcal/mol
CAGTTCACGTGAGGTG	0.37 kcal/mol
ATGTTCACGTGTCGAA	0.35 kcal/mol
GGCGACACGTGTAGGA	0.06 kcal/mol
GAGTTCACGTGTATAT	0.21 kcal/mol
GGATTCACGTGGTGCA	0.15 kcal/mol
TTTAGCACGTGTCCGT	-0.12 kcal/mol
AGTGTCACGTGCATTT	-0.05 kcal/mol
GGGGACACGTGGACAG	0 kcal/mol
GAGATCACGTGGATGT	0.26 kcal/mol
TGGTTCACGTGAGTTG	0.39 kcal/mol
AGAGTCACGTGCGTAG	0.07 kcal/mol
TTTATCACGTGCATTA	-0.05 kcal/mol
TGGGCCACGTGTTGCG	0 kcal/mol
AGTTTCACGTGTGGGG	0.24 kcal/mol
TCGTGCACGTGCTGTG	-0.05 kcal/mol

Sequence	relative binding free energy
GTGTCCACGTGTGCTG	0.14 kcal/mol
ATTAACACGTGGCGGA	0.13 kcal/mol
TCATACACGTGGAGGG	-0.05 kcal/mol
TTTTGCACGTGCGTAC	-0.05 kcal/mol
TACGTCACGTGCAGGT	0.11 kcal/mol
TTAATCACGTGCTCGG	0.07 kcal/mol
AAAGTCACGTGGGCAG	-0.09 kcal/mol
GTCTGCACGTGGGAGA	0.03 kcal/mol
GTCAGCACGTGTGATG	0.18 kcal/mol
AGGTTCACGTGGTCGT	0.21 kcal/mol
TTATGCACGTGAGGAT	0.22 kcal/mol
TTGGTCACGTGACTTA	0.15 kcal/mol
CGTTGCACGTGTTCGT	0.05 kcal/mol
GTTTTCACGTGCAGAT	0.34 kcal/mol
TATTTCACGTGGTCTT	0.21 kcal/mol
GGAGTCACGTGCGGTC	0.19 kcal/mol
GTATTCACGTGGGAGG	0.17 kcal/mol
ATGGTCACGTGGGGCG	-0.03 kcal/mol
TTTGTCACGTGTCATT	0.02 kcal/mol
GAGTTCACGTGGGTGT	0.22 kcal/mol
GGTGTCACGTGGTTGA	0.09 kcal/mol
TATGGCACGTGGAACG	-0.02 kcal/mol
TTGGTCACGTGACCGG	0.1 kcal/mol
GTCGTCACGTGGCGTT	-0.02 kcal/mol
TGTGCCACGTGGGGCG	-0.2 kcal/mol

Sequence	relative binding free energy
GTGTTCACGTGGTGTA	0.17 kcal/mol
TTTCACACGTGGTTCG	0.12 kcal/mol
ATTTTCACGTGGGGAA	0.13 kcal/mol
GGTAACACGTGCGGTG	-0.04 kcal/mol
TTTTGCACGTGGGCTT	-0.14 kcal/mol
GGAGACACGTGGGCGT	-0.03 kcal/mol
AACGTCACGTGATGGG	0.31 kcal/mol
TATCTCACGTGTAGTT	0.2 kcal/mol
TATGACACGTGGTGGT	-0.02 kcal/mol
TTGCGCACGTGGGTAG	-0.25 kcal/mol
TCGAGCACGTGTAGGT	-0.09 kcal/mol
GGATGCACGTGTTCTG	-0.01 kcal/mol
GTGGGCACGTGACTTT	-0.08 kcal/mol
ATGGGCACGTGTTGAA	-0.08 kcal/mol
TTTTTCACGTGACGGC	0.36 kcal/mol
TTCTTCACGTGGCTTT	0.2 kcal/mol
TGCGTCACGTGGAGAA	0.13 kcal/mol
AAAAGCACGTGAATTG	0.24 kcal/mol
AGTTGCACGTGGCGTT	-0.07 kcal/mol
TGTGGCACGTGGTGCG	-0.23 kcal/mol
AATAGCACGTGTTATG	-0.06 kcal/mol
TAGTACACGTGCTGGT	0.08 kcal/mol
TGTCGCACGTGAAGTT	0.26 kcal/mol
TAGAACACGTGCGGTG	0.07 kcal/mol
CGGGTCACGTGGGCCG	-0.07 kcal/mol

Sequence	relative binding free energy
GTATCCACGTGGTAGT	-0.06 kcal/mol
AGGGTCACGTGGATAT	0.12 kcal/mol
GAGTACACGTGTTAGT	0.11 kcal/mol
GTGGGCACGTGAAGCT	0.22 kcal/mol
GGTCACACGTGGTTAT	0.12 kcal/mol
ATTGGCACGTGAGGGA	0.06 kcal/mol
GTGTGCACGTGGATCG	0.09 kcal/mol
GGGATCACGTGGTACG	0.03 kcal/mol
TAGTTCACGTGGTATA	0.14 kcal/mol
GTTAGCACGTGGATTA	-0.06 kcal/mol
GTAAGCACGTGTCGGT	0.13 kcal/mol
ATGAACACGTGTGGTT	0.05 kcal/mol
TCGGGCACGTGTTATT	0.07 kcal/mol
ATGAACACGTGGAAGG	0.08 kcal/mol
TGGTACACGTGGCTGT	0 kcal/mol
AGTAGCACGTGCCTGG	-0.09 kcal/mol
TGAGTCACGTGCATAT	0.06 kcal/mol
TTAGGCACGTGCGTTC	-0.17 kcal/mol
GTTATCACGTGGAAAG	0.17 kcal/mol
TGTGGCACGTGTCTAA	-0.12 kcal/mol
CTTATCACGTGTGTGG	0.2 kcal/mol
TGTTTCACGTGACTGG	0.37 kcal/mol
GCTGGCACGTGGAGGA	0 kcal/mol
GTGTGCACGTGGCGCT	-0.17 kcal/mol
GTTCTCACGTGAGGGA	0.34 kcal/mol

Sequence	relative binding free energy
TATATCACGTGTTGGC	0.23 kcal/mol
TGTAACACGTGTAGTG	-0.04 kcal/mol
CTGTGCACGTGTAAAT	0.15 kcal/mol
GGTGGCACGTGCTCGT	-0.2 kcal/mol
GTGAACACGTGTTTAG	0.02 kcal/mol
GTGTGCACGTGTATAG	0 kcal/mol
TGATTCACGTGAGCTG	0.39 kcal/mol
GAAGACACGTGGGTTT	0.01 kcal/mol
AGAGGCACGTGAGGAT	0.19 kcal/mol
TAATTCACGTGTTTGC	0.09 kcal/mol
GAGTGCACGTGCTTGG	-0.03 kcal/mol
AGAGTCACGTGTTATT	0.17 kcal/mol
AAGTTCACGTGTGGAG	0.33 kcal/mol
ATCTGCACGTGGTGGA	-0.12 kcal/mol
ATTGGCACGTGAAGGA	-0.03 kcal/mol
TATAGCACGTGAGGGC	0.22 kcal/mol
ATTTTCACGTGAGCAT	0.35 kcal/mol
TTTCGCACGTGCTTTA	0.01 kcal/mol
ATCTTCACGTGAGGAT	0.44 kcal/mol
GGATCCACGTGGGATG	-0.03 kcal/mol
CAGGACACGTGTGAGT	0.16 kcal/mol
TGGAGCACGTGGAGCA	-0.05 kcal/mol
ATCTACACGTGGGTTG	-0.04 kcal/mol
TAATTCACGTGAGGAG	0.34 kcal/mol
TGGGGCACGTGGTGAT	-0.23 kcal/mol

Sequence	relative binding free energy
AGCTTCACGTGGGTTT	0.12 kcal/mol
TATTGCACGTGATGTA	0.17 kcal/mol
TGGTGCACGTGCGGCG	-0.01 kcal/mol
GCATGCACGTGGGGTT	-0.09 kcal/mol
AGGTACACGTGCTGAT	0.02 kcal/mol
TGAGGCACGTGAGATG	0.18 kcal/mol
TGAGGCACGTGTGCGT	-0.16 kcal/mol
TGGTGCACGTGTTGTA	0.01 kcal/mol
GGTAGCACGTGAGGGC	0.3 kcal/mol
TAAAGCACGTGAGGTG	0.06 kcal/mol
GGGTTCACGTGAGAGT	0.45 kcal/mol
AAGAGCACGTGTTGCG	-0.06 kcal/mol
GAATACACGTGGGTAT	-0.04 kcal/mol
CATTGCACGTGTTATT	-0.09 kcal/mol
AGTTGCACGTGAGGCA	0.19 kcal/mol
TATATCACGTGCTTTG	-0.02 kcal/mol
GGTGTCACGTGTGATG	0.3 kcal/mol
TTAGCCACGTGGTTAT	-0.14 kcal/mol
ATGGGCACGTGAGTAT	0.06 kcal/mol
TGGTGCACGTGTCGGT	0.16 kcal/mol
TAGTTCACGTGATGTT	0.32 kcal/mol
